Experimental data taken from PubChem BioAssay AID686979 (National Center for Advancing Translational Sciences (NCATS), 2013).
Screen size: about 420,000 compounds; about 50,000 (12%) were called active. This list was built around the results that the source calls inconclusive (neither active nor inactive); the mix of calls is not that of the screen. Calls come from the whole dose curve; as a rule, active = well fitted inhibition curve with a large enough effect; inconclusive = small, poorly fitted or top-dose-only effect; inactive = flat fitted curve, though single readings scatter. No potency is given beside an inconclusive call; the fits are too rough.

Assay: qHTS for Inhibitors of human tyrosyl-DNA phosphodiesterase 1 (TDP1): qHTS in cells in presence of CPT; note: nearly all actives have a fitted effect of over 55% in size
Details: chicken DT40 Tdp1-/-;hTDP1 cells + 20 nM CPT, ATP luminescence, 48 h; activity change, negative = growth inhibition: at 46.2 µM (top of the series)
In short: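 Cell growth measured by CellTiter-Glo luminescence after a minimum 48 h, 37 C compound exposure with 20 nM CPT in Tdp1-knockout DT40 cells stably expressing hTDP1, seeded 400/well; qHTS titration format.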
% is set by controls: 0 for no effect and ±100 for the full control effect; potency is the fitted concentration of half-maximal effect; tags give direction and shape of the fitted curve.

Structure (SMILES) | activity change, negative = growth inhibition | Potency
CCCOc1ccc(C(=O)Nc2cccc(NC(=O)c3cccc(Cl)c3)c2)cc1 | inactive: -23.6% | –
Nc1nc(Nc2ccc(Cl)cc2)nc(NCc2ccco2)c1[N+](=O)[O-] | – | inconclusive [inhibitor, single point]
CC1CCN(c2ccc([N+](=O)[O-])c(SCCO)c2)CC1 | – | inconclusive [inhibitor, single point]
Cc1ccccc1OCC(=O)Nc1nc2ccccc2[nH]1 | inactive: 28.9% | –
Cc1cccc(NC(=O)c2cnn(-c3ccc(F)cc3)c2C2CCNCC2)c1C | inactive: -28.5% | –
COc1ccc(NC(=O)N(C)C[C@@H]2Oc3cc(Br)ccc3S(=O)(=O)N([C@H](C)CO)C[C@H]2C)cc1 | inactive: -8.19% | –
O=C(/C=C/c1ccc(Br)o1)NCc1ccccc1 | inactive: -3.63% | –
CCn1c(CN2CCC(C)CC2)nc2cc(S(=O)(=O)N3CCCCC3)ccc21 | – | inconclusive [inhibitor, single point]
COc1ccc(NCc2cccnc2)cc1 | inactive: -6.29% | –
CN(CC(=O)Nc1cccc(F)c1)C(=O)c1cc(S(=O)(=O)N2CCN(c3ccccc3)CC2)ccc1Cl | – | active: 16.4 µM
Nc1nc(-c2ccc(-n3nncc3-c3ccco3)cc2)cs1 | – | inconclusive [inhibitor, single point]
CCS(=O)(=O)c1ncc(N(Cc2ccco2)Cc2sccc2C)c(C(=O)Nc2ccc(C)cc2C)n1 | – | inconclusive [inhibitor, single point]
COc1ccc(C2/C=C\CN(C(=O)C3CCCC3)[C@H](Cc3ccccc3)C(=O)N2Cc2ccc(F)cc2)cc1 (stereo not given in full) | – | active: 23.1 µM
Fc1cccc(/C=N/Nc2cc(N3CCOCC3)ncn2)c1 | inactive: -4.18% | –
Cc1ccc(-n2c3nc(=O)n(C)c(=O)c-3cc3ccccc32)cc1 | – | inconclusive [inhibitor, partial curve, poor fit]
CCC(=O)N1CCc2cc(S(=O)(=O)NCCC(=O)Nc3ccc(C)cc3)ccc21 | – | inconclusive [inhibitor, single point]
CC(C)(C)OC(=O)[C@H](Cc1ccccc1)NC(=O)c1nc[nH]c1C(=O)NC1CCNCC1 | – | inconclusive [inhibitor, single point]
Cc1c(C)n2c(SCC(=O)N3CCCC3)nnc2[nH]c1=O | inactive: -2.74% | –
CC(C)OC(=O)CSc1nc(Cc2cccs2)nc2ccccc12 | inactive: -21.1% | –
COc1cc(/C=C/c2nc3ccccc3c(=O)[nH]2)cc(Cl)c1O | inactive: 0.979% | –
CCCn1c(=O)c(C(=O)NCc2ccc3c(c2)OCO3)c(O)c2ccccc21 | – | inconclusive [inhibitor, single point]
O=C1CC(c2ccccc2)CN1Cc1ccccc1 (stereo not given) | – | inconclusive [inhibitor, single point]
O=C(OCCc1cc2ccccc2c(=O)o1)c1cccc(Br)c1 | – | inconclusive [inhibitor, full curve, poor fit]
C=CCN1C(=O)c2ccc(C(=O)OCC(=O)N3CCN(c4ccccc4)CC3)cc2C1=O | inactive: -5.97% | –
O=C(CCN1CCN(c2ccccc2F)CC1)Nc1ccccc1Cl | inactive: -23.6% | –

Structure (SMILES) | activity change, negative = growth inhibition | Potency
COc1ccc(/C=N/n2cnc3scc(-c4cccs4)c3c2=O)cc1OC | – | active: 18.4 µM
O=C(COc1ccccc1-c1nnc(-c2ccccc2)o1)Nc1ccc(Br)cc1F | – | inconclusive [inhibitor, full curve, poor fit]
Cc1cccc(Nc2nc(NCCCN3CCOCC3)nc(N)c2[N+](=O)[O-])c1 | – | active: 16.4 µM
Cc1ccc(Nc2nc(N)nc(CN3CCN(C(=O)c4ccco4)CC3)n2)cc1Cl | – | inconclusive [inhibitor, single point]
COc1ccc(NC(=O)COC(=O)c2c(NC(C)=O)sc(C)c2C)cc1 | – | inconclusive [inhibitor, single point]
CCOc1[nH]c(/N=C/c2ccccc2)c(C#N)c1C#N | – | active: 6.31 µM
COc1cccc2cc(CC(=O)c3ccc(C)cc3C)c(=O)oc12 | – | inconclusive [inhibitor, single point]
Cc1ccccc1NC(=O)Cn1nnc(-c2ccc(N3CCOCC3)cc2)n1 | inactive: -16.5% | –
CC(C)c1ccc(-c2nnc3n(CCc4ccccc4)c(=O)c4ccccc4n23)cc1 | – | inconclusive [inhibitor, single point]
c1ccc(C2NCCNC2c2ccccc2)cc1 (stereo not given) | inactive: -11.4% | –
CCN(CC)c1ccc(NC(=O)c2ccc3c(c2)OCO3)cc1 | – | inconclusive [inhibitor, partial curve, poor fit]
CCCC(=O)NC(=S)Nc1sc2c(c1C(N)=O)CCC2 | inactive: -7.7% | –
CCCCCCn1c(N2CCN(c3ccccc3)CC2)nc2c1c(=O)[nH]c(=O)n2C | – | active: 23.1 µM
CSc1nc(-c2ccc(F)cc2)cc(=O)[nH]1 | inactive: 0.628% | –
CCc1ccc(CNC(=O)C2CCN(S(=O)(=O)N3CC(C)CC(C)C3)CC2)cc1 (stereo not given) | inactive: -12.3% | –
CCc1nnnn1-c1ccc([N+](=O)[O-])cc1C | inactive: 2.96% | –
CCOC(=O)/C(=C\c1ccc([N+](=O)[O-])o1)NC(=O)c1ccccc1 | – | active: 23.1 µM
CCN(CC)CCn1c2ccccc2c2nc3ccc([N+](=O)[O-])cc3cc21 | – | active: 8.2 µM
O=C(CN1C(=O)C2CC=CCC2C1=O)Nc1nc(-c2ccc(F)c(F)c2)cs1 (stereo not given) | – | inconclusive [inhibitor, single point]
Cc1cccc(C)c1NC(=S)NC(C)CCc1ccccc1 (stereo not given) | – | inconclusive [inhibitor, single point]
COc1cc(C(=O)n2nc(-c3ccco3)nc2NCc2ccc(Cl)cc2)cc(OC)c1OC | inactive: -18.5% | –
CCCN(CC(=O)c1cc(C)n(C)c1C)S(=O)(=O)c1cccc(C(F)(F)F)c1 | – | active: 23.1 µM
COc1ccc(-c2cc(NC=O)c3ncc(-c4cccc(C(F)(F)F)c4)n3c2)cc1OC | – | active: 23.1 µM
CCC1Nc2ccccc2-c2nnc(SC)nc2O1 (stereo not given) | – | inconclusive [inhibitor, partial curve]
COc1cc(NS(=O)(=O)c2ccc(NC(=O)COc3ccccc3Cl)cc2)nc(OC)n1 | – | inconclusive [inhibitor, full curve, poor fit]
